Read-outs that look alike come from different tables or passages of the source. These are yes or no findings as the source states them, for the method shown. Some results given as binding are weak or reduced against the parent protein; the word gives no strength. For part of these data: Tags and fused reporters may be left off the sequences shown. Values belong to the molecule of their own block, whether it stands above or below them.
Tests used:
[1] = biological target: T1, NdhM bait construct in pGBKT7 (Gal4 DNA binding domain) (Synechocystis sp. PCC 6803) (UniProt P74338); assay: two-hybrid; NdhM in pGBKT7 (Gal4 DNA binding domain) as bait, Ndh subunits in pGADT7 (Gal4 activation domain) as prey; S. cerevisiae AH109; growth on medium lacking Trp, Leu, His and Ade, 30 °C, 6 days
T1 sequence: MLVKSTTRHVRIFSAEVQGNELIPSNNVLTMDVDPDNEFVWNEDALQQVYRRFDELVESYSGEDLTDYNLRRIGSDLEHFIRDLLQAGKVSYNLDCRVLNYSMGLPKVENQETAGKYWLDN

[2] = biological target: T2, GST-NdhM (Synechocystis sp. PCC 6803) (UniProt P74338); assay: pull-down; GST-NdhM on glutathione-Sepharose 4B resin as bait, His-tagged Ndh subunits as prey; 2 h at 4 °C in 20 mM Tris-HCl pH 7.5, 100 mM NaCl, 0.1 mM EDTA, 0.2% Triton, 10% glycerol; washed five times with 300 mM NaCl, 0.5% Nonidet P-40; eluates blotted with anti-His antibody; both purified
T2 sequence: T1 sequence

[3] = biological target: T2, GST-NdhM (Synechocystis sp. PCC 6803); assay: as above; remark: listed apart in the source
[4] = biological target: T3, NdhH subunit (endogenous, cytoplasmic fraction) (Synechocystis sp. PCC 6803 (endogenous in the wild-type strain)) (UniProt P27724); assay: native gel or EMSA; clear native PAGE (5-13% gradient, 4 °C) of 50 μg of cytoplasmic proteins of wild-type Synechocystis 6803, then second-dimension SDS-PAGE and immunoblotting with antibodies against Ndh subunits; subunits found in the same subcomplex
T3 sequence: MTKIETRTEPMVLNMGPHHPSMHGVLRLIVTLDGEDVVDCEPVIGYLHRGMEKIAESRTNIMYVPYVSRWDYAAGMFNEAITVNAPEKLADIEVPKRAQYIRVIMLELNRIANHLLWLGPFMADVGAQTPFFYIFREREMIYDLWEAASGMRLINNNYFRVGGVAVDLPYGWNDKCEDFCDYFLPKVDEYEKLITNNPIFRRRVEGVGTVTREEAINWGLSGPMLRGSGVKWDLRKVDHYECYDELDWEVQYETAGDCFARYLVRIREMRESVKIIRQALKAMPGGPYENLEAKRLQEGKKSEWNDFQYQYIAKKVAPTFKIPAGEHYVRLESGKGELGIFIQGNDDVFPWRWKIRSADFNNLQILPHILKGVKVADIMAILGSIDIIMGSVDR

binding [3]: no binding
B1: NdhO-His6 (protein, UniProt P74771 1-72)
chain: MAAKMKKGSLVRVIRAQLENSLEAQASDRRLPDYLFHSKGEVLDLNEEYALVRFYVPTPNVWLRLDQIEALA

binding [1]: no binding
B2: NdhO prey construct in pGADT7 (Gal4 activation domain) (protein, UniProt P74771 1-72)
chain: B1 chain

binding [3]: no binding
B4: NdhN-His6 (protein, UniProt P74069 1-161)
chain: MLPLPLIANGKGFIRALENDGALAVYAPLEGGYEGRYQRRLRANGYASISLSARGLGDVEAYLMQVHGVRPAHLGKKNIAQEGAVGPIYFAQPIAGYQLENLPAQSKGLVLWILEGYILSQTEIQDLISLTKRVPKLKVVLEMGGDRVFRWQPLLDCLQAA

binding [1]: no binding
B5: NdhN prey construct in pGADT7 (Gal4 activation domain) (protein, UniProt P74069 1-161)
chain: B4 chain

binding [4]: binds
B7: GST-NdhM (natural protein, Synechocystis sp. PCC 6803, UniProt P74338 1-121, looked up)
chain: T1 sequence
notes: NdhM subunit of NDH-1, Synechocystis sp; PCC 6803, gene slr1623 (ndhM); fragment containing ndhM cloned into pGEX-4T-1; also called recombinant NdhM fused with GST; NdhM fused to GST; source: E. coli BL21(DE3) pLysS, purified (glutathione-Sepharose 4B column)

Further lines, the molecule ahead of its results:

Molecule: NdhI prey construct in pGADT7 (Gal4 activation domain) (from UniProt P26525 1-193)
binding [1]: binds

Molecule: NdhJ-His6 (from UniProt P19125 1-179)
binding [2]: binds weakly

B3: NdhL prey construct in pGADT7 (Gal4 activation domain) (protein, UniProt P27372 1-80)
chain: MEDLLGLLLSETGLLAIIYLGLSLAYLLVFPALLYWYLQKRWYVASSVERLVMYFLVFLFFPGLLVLSPVLNLRPRRQAA
binding [1]: no binding

B6: NdhH prey construct in pGADT7 (Gal4 activation domain) (protein, UniProt P27724 1-394)
chain: T3 sequence
binding [1]: binds

Reference: publication PMC4786724, “NdhM Subunit Is Required for the Stability and the Function of NAD(P)H Dehydrogenase Complexes Involved in CO2 Uptake in Synechocystis sp. Strain PCC 6803* ^([image sbox.jpg])” (The Journal of Biological Chemistry, 2015)
